Data as given in the RNAGym collection of RNA variant scans (doi:10.1093/nar/gkz1192).
The source gives no read counts; variants with many changes may rest on few reads.

B1: CPEB3 Ribozyme (parent)
chain: UAACAGGGGGCCACAGCAGAAGCGUUCACGUCGCAGCCCCUGUCAGAUUCUGGUGAAUCUGCGAAUUCUGCUGUAUAUCUC

Variants of: B1
Experiment: self-cleavage, relative activity (ratio to wild type); higher = more cleavage; in vitro, sequencing
Summary of the method: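 Libraries of CPEB3 self-cleaving ribozyme mutants came from rounds of error-prone PCR and carried barcodes, which DNA sequencing matched to variants. In vitro transcription used T7 RNA polymerase at 37°C for 5 hours, with a further 15 min in DNase I before EDTA stopped the reaction; the ribozymes cleaved during both steps. The RNA was reverse transcribed with template switching and sequenced on Illumina. Relative activity is the cleaved/total read fraction of a variant divided by that of the unmutated ribozyme, averaged over three batches with at least 5 reads.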

Which self-cleavage does the source give for UAACAGGGGGCCACAGCAGAAGCGCUCACGUCGCAGCCCCUGUCAGACUCUGGUGAAUCUGCGAAUUCUGCAGUAUAUCUC [U25C U48C U72A] here?
Its self-cleavage is 0.28.

Which self-cleavage does the source give for UAACAGGGGGCCACAGCAGAAGCGCUCACGUCGCAGCCCCUGUCAGACUCUGGUGAAUCUGCGAAUUCUGCGGUAUAUCUC [U25C U48C U72G] here?
Its self-cleavage is 0.1.

Which self-cleavage does the source give for UAACAGGGGGCCACAGCAGAAGCGCUCACGUCGCAGCCCCUGUCAGAUACUGGUGGGUCUGCGAAUUCUGCUGUAUAUCUC [U25C U49A A56G A57G] here?
The self-cleavage was 0.13.

Which self-cleavage does the source give for UAACAGGGGGCCACAGCAGAAGCGCUCACGUCGCAGCCCCUGUCAGAUACUGGUGAAUCUGCGAUUUCUGCUGUAUAUCUC [U25C U49A A65U] here?
Its self-cleavage is 0.11.

Which self-cleavage does the source give for UAACAGGGGGCCACAGCAGAAGCGCUCACGUCGCAGCCCCUGUCAGAUACUGGUGAAUCUGCGAAUUCUGAUGUAUAUCUC [U25C U49A C71A] here?
Its self-cleavage is 0.17.

With UAACAGGGGGCCACAGCAGAAGCGCUCACGUCGCAGCCCCUGUCAGAUACUGGUGAACCUGCGAACUCUGCUGUAUAUCUC [U25C U49A U58C U66C] as the variant, how does the self-cleavage read?
The self-cleavage was 0.18.

For UAACAGGGGGCCACAGCAGAAGCGCUCACGUCGCAGCCCCUGUCAGAUCCUGGUGGAUCUGCGAAUUCUGCUGUAUAUCUC [U25C U49C A56G], which self-cleavage is on record?
Its self-cleavage is 0.19.

With UAACAGGGGGCCACAGCAGAAGCGCUCACGUCGCAGCCCCUGUCAGAUCCUGGUGAGCCUGCGAAUUCUGCUGUAUAUCUC [U25C U49C A57G U58C] as the variant, how does the self-cleavage read?
The self-cleavage was 0.22.

With UAACAGGGGGCCACAGCAGAAGCGCUCACGUCGCAGCCCCUGUCAGAUCCUGGUGAGUCUGCGAAUUCUGCUGUACAUCUC [U25C U49C A57G U76C] as the variant, how does the self-cleavage read?
The self-cleavage was 0.41.

For UAACAGGGGGCCACAGCAGAAGCGCUCACGUCGCAGCCCCUGUCAGAUCCUGGUGAUUUUGCGAAUACUGCUGUAUAUCUC [U25C U49C A57U C59U U67A], which self-cleavage is on record?
The self-cleavage was 0.06.

Which self-cleavage does the source give for UAACAGGGGGCCACAGCAGAAGCGCUCACGUCGCAGCCCCUGUCAGAUCCUGGUGAAUCUGCGAGUUCUGCUGUAUAUCUC [U25C U49C A65G] here?
The self-cleavage was 0.13.

For UAACAGGGGGCCACAGCAGAAGCGCUCACGUCGCAGCCCCUGUCAGAUCCUAGUGAAUCUGCGGAUUCUCCUGUGUAUCUC [U25C U49C G52A A64G G70C A75G], which self-cleavage is on record?
Its self-cleavage is 0.28.

Which self-cleavage does the source give for UAACAGGGGGCCACAGCAGAAGCGCUCACGUCGCAGCCCCUGUCAGAUCCAGGUGUAUCUGCGAAUUCUGCUGUAUAUCUC [U25C U49C U51A A56U] here?
Its self-cleavage is 0.18.

For UAACAGGGGGCCACAGCAGAAGCGCUCACGUCGCAGCCCCUGUCAGAUCCAGGUGAACCUGCGAAUUCUGCUGUAUAUCUC [U25C U49C U51A U58C], which self-cleavage is on record?
Its self-cleavage is 0.18.

With UAACAGGGGGCCACAGCAGAAGCGCUCACGUCGCAGCCCCUGUCAGAUCCAGGUGAAUCUGCGAAUCCUGCCGUAUAUCUC [U25C U49C U51A U67C U72C] as the variant, how does the self-cleavage read?
The self-cleavage was 0.18.

For UAACAGGGGGCCACAGCAGAAGCGCUCACGUCGCAGCCCCUGUCAGAUCCUGGAGAAUCUGCGAAUUCUGCUGUAUAUCUC [U25C U49C U54A], which self-cleavage is on record?
Its self-cleavage is 0.15.

For UAACAGGGGGCCACAGCAGAAGCGCUCACGUCGCAGCCCCUGUCAGAUCCUGGCGAAUCUGCGAAUUCUGCUGUAUAUCUC [U25C U49C U54C], which self-cleavage is on record?
Its self-cleavage is 0.08.

Which self-cleavage does the source give for UAACAGGGGGCCACAGCAGAAGCGCUCACGUCGCAGCCCCUGUCAGAUCCUGGCGGAUCUGCGAAUUCUGCUGUACAUCUC [U25C U49C U54C A56G U76C] here?
The self-cleavage was 0.16.

For UAACAGGGGGCCACAGCAGAAGCGCUCACGUCGCAGCCCCUGUCAGAUCCUGGCGAAUUUGCGAAUUCUGCUGUAUAUCUC [U25C U49C U54C C59U], which self-cleavage is on record?
Its self-cleavage is 0.14.

For UAACAGGGGGCCACAGCAGAAGCGCUCACGUCGCAGCCCCUGUCAGAUCCUGGUGAAGUUGCGAAUUCUGCUGUAUAUCCC [U25C U49C U58G C59U U80C], which self-cleavage is on record?
The self-cleavage was 0.05.

With UAACAGGGGGCCACAGCAGAAGCGCUCACGUCGCAGCCCCUGUCAGAUCCUGGUGAAUCUGCGAAUUCCGCUGUAUAUCUC [U25C U49C U69C] as the variant, how does the self-cleavage read?
Its self-cleavage is 0.11.

With UAACAGGGGGCCACAGCAGAAGCGCUCACGUCGCAGCCCCUGUCAGAUCCUGGUGAAUCUGCGAAUUCUGCUGUAUAUCCC [U25C U49C U80C] as the variant, how does the self-cleavage read?
Its self-cleavage is 0.73.

Which self-cleavage does the source give for UAACAGGGGGCCACAGCAGAAGCGCUCACGUCGCAGCCCCUGUCAGAUUCAGGUGAAUCUGCGAAUUCUGCUGUAUAUUUC [U25C U51A C79U] here?
Its self-cleavage is 0.23.

For UAACAGGGGGCCACAGCAGAAGCGCUCACGUCGCAGCCCCUGUCAGAUUCAGGUGAAUCUGCAAAUUCUGCUGUAUAUCUC [U25C U51A G63A], which self-cleavage is on record?
The self-cleavage was 0.26.

With UAACAGGGGGCCACAGCAGAAGCGCUCACGUCGCAGCCCCUGUCAGAUUCAGGAGAAUCUGCGGAUUCUGCUGUAUAUCUC [U25C U51A U54A A64G] as the variant, how does the self-cleavage read?
Its self-cleavage is 0.22.

With UAACAGGGGGCCACAGCAGAAGCGCUCACGUCGCAGCCCCUGUCAGAUUCAGGCGAAUCUGCGAAUUCUGCUGUAUACCUC [U25C U51A U54C U78C] as the variant, how does the self-cleavage read?
The self-cleavage was 0.17.

With UAACAGGGGGCCACAGCAGAAGCGCUCACGUCGCAGCCCCUGUCAGAUUCAGGUGAAUCUGCGAACUCUGCUGAAUAUCUC [U25C U51A U66C U74A] as the variant, how does the self-cleavage read?
The self-cleavage was 0.08.

Which self-cleavage does the source give for UAACAGGGGGCCACAGCAGAAGCGCUCACGUCGCAGCCCCUGUCAGAUUCAGGUGAAUCUGCGAAUUCUGCUGUAAAUCUC [U25C U51A U76A] here?
The self-cleavage was 0.15.

With UAACAGGGGGCCACAGCAGAAGCGCUCACGUCGCAGCCCCUGUCAGAUUCAGGUGAAUCUGCGAAUUCUGCUGUAUACCUC [U25C U51A U78C] as the variant, how does the self-cleavage read?
The self-cleavage was 0.09.

For UAACAGGGGGCCACAGCAGAAGCGCUCACGUCGCAGCCCCUGUCAGAUUCAGGUGAAUCUGCGAAUUCUGCUGUAUAUCAC [U25C U51A U80A], which self-cleavage is on record?
The self-cleavage was 0.08.

With UAACAGGGGGCCACAGCAGAAGCGCUCACGUCGCAGCCCCUGUCAGAUUCAGGUGAAUCUGCGAAUUCUGCUGUAUAUCCC [U25C U51A U80C] as the variant, how does the self-cleavage read?
The self-cleavage was 0.45.

Which self-cleavage does the source give for UAACAGGGGGCCACAGCAGAAGCGCUCACGUCGCAGCCCCUGUCAGAUUCCGGUGAAUCUGCGGAUUCUGCUGUAUAUCUC [U25C U51C A64G] here?
Its self-cleavage is 0.56.

Which self-cleavage does the source give for UAACAGGGGGCCACAGCAGAAGCGCUCACGUCGCAGCCCCUGUCAGAUUCCGGAGAAUCUGCGAAUUCUGCUGUAUAUCUC [U25C U51C U54A] here?
The self-cleavage was 0.15.

For UAACAGGGGGCCACAGCAGAAGCGCUCACGUCGCAGCCCCUGUCAGAUUCCGGAGAAUCUGCGAAUUCUGCUGCGUAUCUC [U25C U51C U54A U74C A75G], which self-cleavage is on record?
The self-cleavage was 0.08.
